Measured values as given in PubChem BioAssay AID493005 (National Center for Advancing Translational Sciences (NCATS), 2010).
Screen size: about 340,000 compounds; fewer than 10 were called active. The shares of active, inactive and inconclusive entries below differ from those in the screen. Calls follow the shape of the dose curve; as a rule, active = well fitted inhibition curve with a large enough effect in the main read-out, with a control signal flat (not every such curve was filed as active); inconclusive = small, poorly fitted or top-dose-only effect, or effect the other way, or a change in a side signal; inactive = no such curve, though single readings can be large or run the other way. Where the call is inconclusive, the potency comes from a doubtful curve fit. A note “side channel” means that the fit belongs to a control or component signal, not to the main read-out.

biological target: Tumor susceptibility gene 101 protein (Homo sapiens) (UniProt Q99816); assay: qHTS Assay for Iinhibitors of HIV-1 Budding by Blocking the Interaction of PTAP/TSG101; details: Fluorescence polarization, FITC-PTAP peptide / Tsg101 binding; activity change, negative = inhibition: at 115 µM (top of the series); as to activity change, negative = inhibition: % of control where 0% means no effect
Sequence of UniProt Q99816 (Q99816 whole entry, looked up, the tested form may be a part): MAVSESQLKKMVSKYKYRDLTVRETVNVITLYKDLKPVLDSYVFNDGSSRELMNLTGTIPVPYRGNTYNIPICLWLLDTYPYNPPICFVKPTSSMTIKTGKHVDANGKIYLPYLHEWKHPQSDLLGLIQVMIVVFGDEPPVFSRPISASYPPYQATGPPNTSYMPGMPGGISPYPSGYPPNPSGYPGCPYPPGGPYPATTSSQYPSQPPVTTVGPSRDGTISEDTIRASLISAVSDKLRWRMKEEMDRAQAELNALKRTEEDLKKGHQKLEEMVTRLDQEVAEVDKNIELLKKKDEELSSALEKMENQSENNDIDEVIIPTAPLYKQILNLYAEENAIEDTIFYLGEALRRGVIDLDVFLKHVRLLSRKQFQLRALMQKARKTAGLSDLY
How it was run: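 Fluorescence polarization binding of Tsg101 binding domain (10 uM final) to FITC-labeled PTAP peptide (50 nM final) in HEPES pH 7.5 buffer with NaCl, Tween 20, EDTA, TCEP. Compounds added before peptide; binding 20 min at RT.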
Potency is read from the fitted curve at half-maximal effect; tags tell the direction and shape of the fitted curve or compound fluorescence and quenching.

Row | SMILES | activity change, negative = inhibition | Potency
1 | COc1ccc(NC(=O)CN(C)S(=O)(=O)c2ccc3c(c2)c(=O)n(C)c(=O)n3C)cc1 | inactive: -5.92% | 
2 | COc1ccc(OC)c2c1C(=O)c1ccccc1C2=O |  | inconclusive: 56.2 µM [fluorescent, side channel, partial curve, poor fit]
3 | Nc1nc(Sc2ccc([N+](=O)[O-])c3nonc23)c2[nH]cnc2n1 |  | inconclusive: 56.2 µM [fluorescent, side channel, partial curve, poor fit]
4 | CCN(CC)c1ccc(C=Nc2ccc(N(C)C)cc2)c(O)c1 |  | inconclusive: 56.2 µM [fluorescent, side channel, partial curve, poor fit]
5 | Cc1sc2nc(CN(Cc3cccs3)C(=O)C3CC3)[nH]c(=O)c2c1C |  | inconclusive: 50.1 µM [fluorescent, side channel, partial curve, poor fit]
6 | O=C(NCC1CCCO1)c1nc2c(nnn2Cc2ccc(F)cc2)c(=O)[nH]1 (stereo not given) | inactive: -0.645% | 
7 | CCCCCCc1cc2cc(C(=O)Nc3ccc(OC)cc3)c(=O)oc2cc1O | inactive: 1.73% | 
8 | O=C(Nc1ccccc1O)c1ccc(Cl)cc1 | inactive: -2.89% | 
9 | O=C(O)c1cccc2c1C(=O)c1ccc(N3CCCC3)cc1S2(=O)=O |  | inconclusive: 56.2 µM [fluorescent, side channel, partial curve, poor fit]
10 | COc1ccc(Br)cc1[C@H]1[C@H]2C=CC[C@@H](C)[C@@H]2C(=O)N1Cc1ccccc1 | inactive: -1.35% | 
11 | CCN(CC)C(=O)CSc1nnc2nnc3cc(OC)ccc3n12 |  | inconclusive: 50.1 µM [fluorescent, side channel, partial curve, poor fit]
12 | CCCCCCn1cc(C(=O)O)c(=O)c2ccccc21 | inactive: -2.93% | 
13 | CCn1cc(C=C2C(=O)c3ccccc3C2=O)c2ccccc21 |  | inconclusive: 39.8 µM [fluorescent, side channel, partial curve]
14 | CCOc1ccc(S(=O)(=O)N2CCc3cc(OC)c(OC)cc3C2)cc1 |  | inconclusive: 79.4 µM [falling, partial curve, poor fit]
15 | CCOc1ccc(C2C(C#N)=C(N)SC(N)=C2C#N)cc1OCC |  | inconclusive: 50.1 µM [fluorescent, partial curve, poor fit]
16 | Cc1sc2nc(COC(=O)c3cccc(S(=O)(=O)N(C)c4ccccc4)c3)[nH]c(=O)c2c1C |  | inconclusive: 79.4 µM [fluorescent, side channel, partial curve, poor fit]
17 | O=C(NCC1CCCO1)c1csc2c1CCCCC2 (stereo not given) | inactive: -5.68% | 
18 | COc1cc(/C=C/C(=O)/C=C(O)/C=C/c2ccc(O)c(OC)c2)ccc1O |  | inconclusive: 31.6 µM [fluorescent, side channel, partial curve]

Row | SMILES | activity change, negative = inhibition | Potency
19 | CN(C)c1ccc(/C=C/c2nc3ccccc3c(=O)n2-c2ccc(C(=O)O)cc2)cc1 |  | inconclusive: 56.2 µM [fluorescent, side channel, partial curve, poor fit]
20 | O=C1c2ccccc2-c2onc3ccc(Oc4ccccc4)c1c23 |  | inconclusive: 50.1 µM [fluorescent, side channel, partial curve, poor fit]
21 | CC(CN1CCCC1)OC(=O)c1ccc(Cl)cc1 (stereo not given) | inactive: -6.02% | 
22 | O=C(O)c1cccc(-c2ccc(/C=c3/sc4nc5ccccc5n4c3=O)o2)c1 |  | inconclusive: 44.7 µM [fluorescent, side channel, partial curve, poor fit]
23 | CCOc1ccccc1OCC(=O)Nc1ccc2[nH]c(=O)[nH]c2c1 | inactive: -0.546% | 
24 | O=C(Nc1ccc(Cl)cc1)Nc1ccon1 |  | inconclusive: 89.1 µM [fluorescent, partial curve, poor fit]
25 | C#CCOCCOCCOCCNc1nc(N2CCN(C(=O)CCCCCCCCCCNC(=O)[C@H](CO)n3cc(CCCSC)nn3)CC2)nc(N2CCN(C(=O)CCCCCCCCCCNC(=O)[C@H](CCCN=C(N)N)n3cc(C[C@@H](C)CC)nn3)CC2)n1 |  | inconclusive: 89.1 µM [fluorescent, single point]
26 | COc1ccc(CNC(=O)C(C#N)c2nc3ccccc3nc2N2CCCC2)cc1 (stereo not given) |  | inconclusive: 50.1 µM [fluorescent, side channel, partial curve, poor fit]
27 | COc1cccc2c1C(=O)c1c(O)c3c(c(O)c1C2=O)C[C@@](O)(C(=O)CO)C[C@@H]3OC1CC(N)C(O)C(C)O1 (stereo not given in full) |  | inconclusive: 50.1 µM [fluorescent, side channel, partial curve, poor fit]
28 | O=C(O)C(c1ccccc1)N1C(=O)/C(=C\c2ccc(-c3ccc(Br)cc3)o2)SC1=S (stereo not given) |  | inconclusive: 35.5 µM [fluorescent, side channel, partial curve]
29 | CN(C)c1ccc(C=c2c3ccccc3n3c2c2c([n+]3C)CCCC2)cc1 |  | inconclusive: 56.2 µM [quencher, side channel, partial curve, poor fit]
30 | COc1ccc(CC(=O)NCC2(N3CCCCC3)CCCCC2)cc1 | inactive: -4.43% | 
31 | N#C/C(=C/c1ccc(N2CCOCC2)o1)C(=O)NC1CCCCC1 |  | inconclusive: 50.1 µM [fluorescent, side channel, partial curve, poor fit]
32 | CCCOC(=O)c1ccc(Oc2cn[nH]c2-c2ccc(OC)cc2O)cc1 |  | inconclusive: 22.4 µM [quencher, side channel, partial curve, poor fit]
33 | N#CC(C(=O)NCc1ccccc1)c1nc2ccccc2nc1N1CCCC1 (stereo not given) |  | inconclusive: 56.2 µM [fluorescent, side channel, partial curve, poor fit]
34 | O=c1c(/C=N/Nc2ccccc2)c(Sc2nnnn2-c2ccccc2)nc2ccccn12 |  | inconclusive: 50.1 µM [fluorescent, side channel, partial curve, poor fit]
35 | CC(=O)Oc1ccc2c(c1)O/C(=C\c1ccncc1)C2=O |  | inconclusive: 56.2 µM [fluorescent, side channel, partial curve, poor fit]
